# This is one part of the list.
# Test system: PfHDP1 homeodomain (GST-tagged)
# Assay: gcPBM binding intensity (ln(normalized median fluorescence intensity)); higher = stronger DNA binding
# In short: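 Binding intensity values are the highest Masliner-normalised natural-log median intensity among replicate spots of either probe orientation. The binding step lasted 1 h in 1× PBS with 1% milk, 0.2 mg/ml BSA, 0.5% salmon testes DNA and 0.03% Triton X-100, using GST-tagged P. falciparum DNA-binding domains expressed in E. coli on an Agilent 4 × 180k array of primer-extended double-stranded 36-bp intergenic genomic probes plus negative controls. Alexa488 anti-GST antibody and a 488 nm scan detected bound protein.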
row,Sequence,gcPBM binding intensity (ln)
1,TTCTTCACATACACTTCAAAATTTGATAAAACATTA [CACACA_negctrl_site472],7.18
2,TATCTATAATATTATACACACATATATGCATAATAT [CACACA_site6175],7.4
3,TATATATTTTTTTCAAGTACACATTACAGTTACATA [XGTACX_site2713],6.65
4,ATGTTTTCTCTTTCGGTGCATTGTTTTCTATACTTT [GTGCAC_site9483],9.41
5,ATTCGATGTTTTAAATGTACACAAATTGAAGGAATA [XGTACX_site409],6.77
6,TAAAAATATCTGTATACACACATATATATATATATA [CACACA_site6042],9.57
7,AAAAAAAAAAAAAAAAGTACAAATCTTTATTTATTA [XGTACX_site3305],6.25
8,ATAATATAATATAAAACACACATATGTACCTTCTAA [CACACA_site2761],6.42
9,CAAGTTCAAAATACAAGGAAGAAACAAAACTTGGCG [GTGCAC_negctrl_site600],6.94
10,TATTATAAAACATTATGTACATATTCTGAAAAATAG [XGTACX_site6577],6.5
11,TATTTCTTATTTATTTTTTAAGGAAATTAAAGATTT [CACACA_negctrl_site258],5.95
12,CAAAATAAAAAATTCACACACATATATATATATATA [CACACA_site2088],9.29
13,AAAACAAATGCTTAAAGTACTTATTATTTTTCTTTT [XGTACX_site6324],6.9
14,TTCCTACTATTCAAACGTACAAAATATTTAAATAAT [XGTACX_site700],6.5
15,TATGATATCTATAATACACACATATACATAAGATCT [CACACA_site6652],6.6
16,TTAATATAACTTTTTGCACACTTAATTTTTTTTTTT [CACACA_site3364],10.2
17,TTATATAAAACATTAACACACAAAGAAAAAAAATTA [CACACA_site1793],6.61
18,TGGTGATCAAAATATACATGCATATGTTCTGTTATT [TGCATGCA_site614],6.39
19,TATATATTAGAAGATAGTACATATATATTTATTAAT [XGTACX_site1011],6.48

row,Sequence,gcPBM binding intensity (ln)
1,GCTCAATGTTTTACATGTACATATATATATATATAT [XGTACX_site8210],9.4
2,TAATATTTCTTATTTTATATTTGTATATGAATGGAT [XGTACX_negctrl_site278],6.23
3,ATATAAATCATTGGTTGTACATATAATATTTTATAA [XGTACX_site925],6.28
4,TATTTTTACCCATAAAGTACACATAAATATAAAATA [XGTACX_site177],6.61
5,TATATATCTATATATTGTACATATGTTTGTATGTGT [XGTACX_site7420],6.55
6,TTTGTGTAAAGAATCAGTACATATAATATATATATA [XGTACX_site1972],8.2
7,GTGCTACATCATATGTGTACATATACCAAACTGTAT [XGTACX_site8233],6.89
8,ATATGTATTGGAGTGTGTACATATATATATATTTAT [XGTACX_site5633],6.85
9,TTAATAATGTTTTATTGTACTTTTTTGTGGGTTTAT [XGTACX_site5670],6.66
10,ATATACATTCAAGGCTGTACACTATATTTTTTTTTT [XGTACX_site6514],6.87
11,TATTTTATATGATAGGTGCATTTTTTTTTTTTTTTT [GTGCAC_site9757],9.34
12,CTTGACCCCCTTTGTTGTACTGACATTTGTGAGCTT [XGTACX_site591],6.61
13,ATTTTTTCAAAATGGAAAACTTATCAGTGAAAAAAA [CACACA_negctrl_site1087],6.29
14,ATTTTTTTATACAATTTTATATATTAAATATTATAA [GTGCAC_negctrl_site86],6.48
15,TAAAAATGGGAGGGGTGTACTACACAATAAAATTAT [XGTACX_site5641],7.41
16,TGTATTTTTAACATATGTACGAATAGCACGTGTTAT [XGTACX_site3640],6.86
17,TAATTTAAAAATTCCTGTACTCAGTTTTTTCTATTT [XGTACX_site4961],6.15
18,TAAGTGTATGTATATAAACACACATACATATATATA [CACACA_site8397],6.76
19,AGTATACACGAACACACACACACATATATAAATATA [CACACA_site6913],6.93

row,Sequence,gcPBM binding intensity (ln)
1,TAAAGTATTACAACCACACACACACCCATATATTAT [CACACA_site4159],6.71
2,TATAAAATTATTAAACAAGAAAATTTTAGGTAATAC [TGCATGCA_negctrl_site568],6.72
3,TTGATAAAACGTTATGCACACGTACGTGGGTATTTA [CACACA_site8445],10.2
4,TATAATATATTTTGATGTACAAATATATTATATATA [XGTACX_site8633],6.31
5,ATAATATATTTTTGAACACACAATATATATATATAT [CACACA_site4124],9.09
6,ATATAAATATGACACACACACAAAAAAAATAAAGAC [CACACA_site6208],7.67
7,TAATTATAATAAATATTCATATGTTCAAATATATAT [CACACA_negctrl_site151],6.33
8,ATGTGATAGAAGTACACACACATATGTATTTATAAT [CACACA_site5075],6.7
9,AATCAAAATAATTTAACACACAATTTTAATACTGTT [CACACA_site2375],6.24
10,TTTAAGAATTAACGGGGTACAATTCTTAAATATATA [XGTACX_site669],6.33
11,AAATTCCATGAAAAAAGTACTAATTAATACAATATA [XGTACX_site2877],6.49
12,TAGAAGTACATATATGCATGTTAATTTTAAAGGAGG [TGCATGCA_site538],6.9
13,ATTAAAAATATTAGTTGTACTTTATATTTTCATATA [XGTACX_site3614],6.02
14,ATATATATATAGTGTTGTACATTTAAAAATAATATA [XGTACX_site2627],8.84
15,TTTTTTATTAAAAGTAGTACACATGAAAAAAAAAAA [XGTACX_site5524],6.4
16,ATTTTTATAGAAATATGTACACAATATGTATATATT [XGTACX_site7993],6.37
17,TTAATATAGATATAACCACACACATACATCTAATTC [CACACA_site8519],6.77
18,TCTTTTATGCACATTGAGTAAACAACATATTTTTAA [TGCATGCA_negctrl_site561],10.9
